PubChem BioAssay AID485294 (National Center for Advancing Translational Sciences (NCATS), 2010)
Hit rate of the full screen: of about 370,000 compounds, about 150 (0.041%) were called active. The shares of active, inactive and inconclusive entries below differ from those in the screen. The call rests on the fitted dose curve; in most records, active means well fitted inhibition curve with a large enough effect; inconclusive means small, poorly fitted or top-dose-only effect; inactive means flat fitted curve, though single readings scatter. No potency is given beside an inconclusive call; the fits are too rough.

The molecules below were run against Beta-lactamase (Escherichia coli (strain K12)) (UniProt P00811) (assay: qHTS Inhibitors of AmpC Beta-Lactamase (assay with detergent)). Conditions: AmpC hydrolysis of nitrocefin, absorbance 480 nm, 0.01% Triton; activity change, negative = inhibition: at 114 µM (top of the series).
Method in brief: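 20 mM phosphate pH 7.0 + 0.01% (detergent screen) or 0.0001% Triton X-100; 5.3 nM AmpC reagent; cpd preinc 15 min RT; nitrocefin (800 uM stock) to start; A480 q20 s × 4 min; Activity was normalised to no-enzyme and no-compound control wells.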
Further: nearly all actives have a fitted effect of over 25% in size.
Potency means the concentration at half of the fitted maximal effect; tags describe the fitted curve by direction and shape.
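Wherever activity change, negative = inhibition is given: 0% = no-compound wells and -100% = no-enzyme wells.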

UniProt P00811, sequence (P00811 whole entry, looked up): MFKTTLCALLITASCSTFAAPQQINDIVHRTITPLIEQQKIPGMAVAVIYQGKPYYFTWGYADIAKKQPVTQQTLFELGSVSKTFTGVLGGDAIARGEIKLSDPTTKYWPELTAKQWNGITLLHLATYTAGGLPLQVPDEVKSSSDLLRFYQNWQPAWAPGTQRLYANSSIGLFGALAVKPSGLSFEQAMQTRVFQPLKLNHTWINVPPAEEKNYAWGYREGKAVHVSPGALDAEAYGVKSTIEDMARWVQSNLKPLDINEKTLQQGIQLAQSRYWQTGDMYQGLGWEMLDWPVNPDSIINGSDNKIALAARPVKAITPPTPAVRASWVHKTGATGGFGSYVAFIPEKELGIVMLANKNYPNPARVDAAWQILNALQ

Structure (SMILES) | Potency | activity change, negative = inhibition
CC1CC(C)CN(C(=O)Cn2nnc(-c3ccccc3)n2)C1 (stereo unspecified) | inconclusive [inhibitor, full curve, poor fit] | 
COc1ccc(C(CNc2ccc(S(=O)(=O)N3CCCC3)cc2[N+](=O)[O-])N2CCCC2)cc1 (stereo unspecified) | inconclusive [inhibitor, partial curve, poor fit] | 
CCCCNC(=O)Nc1ccccc1C(=O)NCCC | inconclusive [inhibitor, full curve] | 
CCC1CCC(NC2CCCCNC2=O)CC1 (stereo unspecified) | inconclusive [inhibitor, full curve] | 
O=C(/C=C/c1cccc(Cl)c1)NCCN1CCOCC1 | inconclusive [inhibitor, full curve, poor fit] | 
COc1ccc(C(=O)NNC(=O)C(NC(=O)c2ccccc2NC(=O)c2ccco2)C(C)C)cc1 (stereo unspecified) | inconclusive [inhibitor, full curve] | 
CCCN(CC(=O)Nc1ccccc1C)C(=O)CCN1C(=O)c2cccc([N+](=O)[O-])c2C1=O |  | inactive: -8.45%
CC1=C(C(=O)OCC2CCCO2)C(c2ccccc2Cl)NC(=O)N1 (stereo unspecified) | inconclusive [inhibitor, full curve, poor fit] | 
CC(Sc1ncccn1)C(=O)N1CCc2ccccc21 (stereo unspecified) | inconclusive [inhibitor, partial curve, poor fit] | 
COc1ccc2c(c1)c(C(=O)N/N=C/c1cccc(Br)c1)c(C)n2C |  | inactive: 6.69%
CC(=O)c1ccc(S(=O)(=O)NC(=O)NC2CCCCC2)cc1 | inconclusive [inhibitor, full curve, poor fit] | 
O=c1cc(N=Nc2ccc(Cl)cc2)[nH]c(=O)[nH]1 | inconclusive [inhibitor, partial curve] | 
Cc1ccc(S(=O)(=O)Nc2nc3n(n2)C(c2ccc(Cl)cc2)CC(=O)N3)cc1 (stereo unspecified) | inconclusive [inhibitor, single point] | 
CC(C)Sc1ccc(C(=O)Nc2ccc(F)cc2F)cn1 | inconclusive [inhibitor, full curve, poor fit] | 
CC(C)Cn1c(N)c(C(=O)COC(=O)c2cccc(Cl)c2)c(=O)n(C)c1=O | inconclusive [inhibitor, full curve, poor fit] | 
COCCCNC(=S)N1CCN(Cc2ccc3c(c2)OCO3)CC1 |  | inactive: 4.31%
Cc1nnc(SCC(=O)Nc2ncc3c(n2)CCCC3=O)s1 | inconclusive [inhibitor, partial curve, poor fit] | 
O=C(Cc1ccccc1)NNC(=O)Nc1ccc(Cl)c(Cl)c1 | inconclusive [inhibitor, full curve, poor fit] | 
COc1ccc(NC(=O)Nc2nnc(N3CCCC3)s2)cc1 |  | inactive: 10.2%
Cc1cc(C)nc(Nc2ncc(O)n2-c2ccccc2)n1 |  | inactive: 1.58%
Cc1ccc2c(c1)c1c(c(=O)n(-c3ccccc3)c(=O)n1Cc1ccccc1C)n2C |  | inactive: 3.11%
CC1(C)OC(=O)C(=Cc2ccc(-c3ccc(Cl)c(C(=O)O)c3)o2)C(=O)O1 | inconclusive [inhibitor, partial curve, poor fit] | 

Structure (SMILES) | Potency | activity change, negative = inhibition
O=C(COc1ccc2c(c1)oc(=O)c1ccccc12)N[C@@H](Cc1ccccc1)C(=O)O |  | inactive: -13.4%
CCC(=O)N1c2ccccc2CC1C(=O)NCc1ccc(CC)cc1 (stereo unspecified) |  | inactive: 5.74%
CCCCNC(=O)NCC(=O)Nc1ccc(F)c(F)c1 | inconclusive [inhibitor, partial curve, poor fit] | 
CCOC(=O)CC1=NC(=O)CS1 | inconclusive [inhibitor, full curve, poor fit] | 
CCOC(=O)c1ccccc1NC(=O)C1CC(=O)N(C(C)(C)C)C1 (stereo unspecified) | inconclusive [inhibitor, full curve, poor fit] | 
O=C(c1ccc2c(c1)C(=O)N(Cc1ccco1)C2O)N1CCOCC1 (stereo unspecified) | inconclusive [inhibitor, full curve, poor fit] | 
COCCN(CC(=O)NCc1ccc(F)cc1)C(=O)CCC(=O)Nc1ccccn1 | inconclusive [inhibitor, partial curve] | 
CC(=O)c1cccc(NC(=O)NCc2ccco2)c1 | inconclusive [inhibitor, full curve] | 
C(=N\n1cnnc1)/c1ccc2c(c1)OCO2 | inconclusive [inhibitor, partial curve] | 
COc1ccc(S(=O)(=O)N(CC(=O)NCc2ccncc2)Cc2ccccc2)cc1 | inconclusive [inhibitor, full curve, poor fit] | 
CCOC(=O)Cn1nc(-c2ccccc2)c2cnc3ccc(C)cc3c21 | inconclusive [inhibitor, full curve] | 
CCSc1nc(N2CCCCC2)c2c(c1C#N)CCCC2 | inconclusive [inhibitor, full curve, poor fit] | 
O=C(CCC(=O)Nc1ccccc1Cl)N/N=C1\CCCc2ccccc21 | inconclusive [inhibitor, full curve] | 
O=c1[nH]c(O)c(/C=C2\C=Nc3ccc(OCc4ccccc4)cc32)c(=O)[nH]1 | inconclusive [inhibitor, partial curve, poor fit] | 
Cc1ccn(CC(=O)N2CCCC(C(=O)c3cccc4ccccc34)C2)n1 (stereo unspecified) |  | inactive: 6.31%
CCC1CCc2c(sc(NC(=O)c3ccco3)c2C(N)=O)C1 (stereo unspecified) | inconclusive [inhibitor, partial curve] | 
CN1CCN(c2ccccc2NC(=O)COc2ccccc2)CC1 | inconclusive [inhibitor, full curve, poor fit] | 
CCCCNC(=O)Cn1cnc2c(cnn2-c2ccc(C)c(C)c2)c1=O | inconclusive [inhibitor, full curve, poor fit] | 
CCOC(=O)C1[C@H]2C(=O)N(C(C)c3ccc(OC)cc3)C[C@]23C=C[C@H]1O3 (stereo partly specified) | inconclusive [inhibitor, partial curve, poor fit] | 
COc1cc(NC(=O)c2ccc(C)cc2C)ccc1NC(=O)c1cc2ccccc2o1 | inconclusive [inhibitor, partial curve, poor fit] | 
CCCCN(C(=O)c1ccc(N2C(=O)c3ccccc3C2=O)cc1)c1c(N)n(CC(C)C)c(=O)[nH]c1=O | inconclusive [inhibitor, partial curve] | 
Cc1ccc(CN(C)C2CCN(C)CC2)cc1 |  | inactive: -6.25%

Structure (SMILES) | Potency | activity change, negative = inhibition
COc1ccc2cc(CCNC(=O)c3ccc4c(c3)OCO4)c(=O)[nH]c2c1 | inconclusive [inhibitor, full curve, poor fit] | 
Cc1ccc(S(=O)(=O)Nc2ccc(Cl)cc2C(=O)c2ccccc2)cc1 | inconclusive [inhibitor, single point] | 
CCOC(=O)N1C(=O)[C@](CC)(c2ccccc2)N1C(=O)OCC | inconclusive [inhibitor, full curve] | 
CCc1cc2c(cc3c(=O)n(CCCC(=O)NCc4cccc(Br)c4)ncn32)s1 |  | inactive: 12.2%
CC1CCCN(c2nc3c(c(=O)[nH]c(=O)n3C)n2CCCc2ccccc2)C1 (stereo unspecified) | inconclusive [inhibitor, full curve] | 
NC(=O)c1ccc(NC(=O)CSc2nc3ccccc3c(=O)n2CCCN2CCOCC2)cc1 |  | inactive: -1.74%
O=C(Nc1sc2c(c1C(=O)O)CCC2)c1ccco1 | inconclusive [inhibitor, full curve] | 
Cc1ccc(-n2c(=O)[nH]cc(C(=O)Nc3ccc4c(c3)OCO4)c2=O)cc1C | inconclusive [inhibitor, full curve, poor fit] | 
O=C1CC(N2CCC(O)(c3ccc(Cl)cc3)CC2)C(=O)N1Cc1ccc(N2CCCC2=O)cc1 (stereo unspecified) |  | inactive: 0.545%
CCCn1c(CCC(=O)O)ccc1-c1cccs1 | inconclusive [inhibitor, full curve, poor fit] | 
O=C(N/N=C/c1ccc(OC(F)F)cc1OC(F)F)c1ccc(Br)cc1 |  | inactive: -1.99%
Cc1cc(C)n(-c2ccc(C(=O)Nc3ccccn3)cc2)n1 | inconclusive [inhibitor, full curve, poor fit] | 
Cc1ccc(N2C(=O)CSCC2=O)cc1 | inconclusive [inhibitor, full curve, poor fit] | 
CCCCC12CN3CC(C)(CN(C1)C3c1c[nH]c3ccccc13)C2=O (stereo unspecified) |  | inactive: -3.27%
O=C(Nc1ccc(S(=O)(=O)N2CCOCC2)cc1)c1ccc(CN2CCc3ccccc3C2)cc1 |  | inactive: -0.0566%
CCOC(=O)N1CCN(C(=O)N2CCOCC2)CC1 | inconclusive [inhibitor, full curve, poor fit] | 
CC(=O)NC(c1cccs1)c1cc([N+](=O)[O-])c2cccnc2c1O (stereo unspecified) |  | inactive: -10.9%
COc1cccc(C(=O)NCC(=O)OCC(=O)Nc2cc(OC)c([N+](=O)[O-])cc2C)c1 |  | inactive: 0.476%
CCOC(=O)CSc1nc2c(c(=O)[nH]c(=O)n2C)n1C/C=C(/C)Cl | inconclusive [inhibitor, full curve, poor fit] | 
COCC(=O)N(C)c1nnc(-c2cnc(C)cn2)s1 |  | inactive: 0.45%
Fc1ccccc1CN1CCCN(C(=S)Nc2cccc(Cl)c2)C1 | inconclusive [inhibitor, single point] | 
Cc1ccc(NS(=O)(=O)c2ccc(NC(=O)CN(c3cc([N+](=O)[O-])ccc3C)S(C)(=O)=O)cc2)c(C)c1 | inconclusive [inhibitor, full curve, poor fit] | 
